Experimental data as given in the BET-seq Pho4 binding data (Le et al. 2018).
Some of the results follow. The energies were worked out here from pooled read counts, against the library average; single values are noisy.

The sequences below were run against T1, Pho4 (S. cerevisiae) (UniProt P07270) (assay: relative binding free energy (BET-seq); higher = weaker binding). Conditions: reference: library average.
T1 sequence: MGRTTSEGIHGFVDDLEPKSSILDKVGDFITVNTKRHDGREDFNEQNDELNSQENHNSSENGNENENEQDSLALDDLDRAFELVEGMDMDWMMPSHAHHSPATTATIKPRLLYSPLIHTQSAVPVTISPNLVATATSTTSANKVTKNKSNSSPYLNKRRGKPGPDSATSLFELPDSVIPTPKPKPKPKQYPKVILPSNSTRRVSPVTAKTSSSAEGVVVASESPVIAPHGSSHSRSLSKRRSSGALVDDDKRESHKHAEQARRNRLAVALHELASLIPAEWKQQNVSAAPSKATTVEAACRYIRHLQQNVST

| Sequence | relative binding free energy |
| --- | --- |
| TAGGTCACGTGTCATT | 0.21 kcal/mol |
| GGTGACACGTGGAGTG | 0.01 kcal/mol |
| ATATTCACGTGGTAGC | 0.17 kcal/mol |
| CAGTTCACGTGAGTGT | 0.39 kcal/mol |
| CTAGTCACGTGTGAGG | 0.15 kcal/mol |
| TAGTTCACGTGAAGTA | 0.29 kcal/mol |
| ATTGCCACGTGTTATG | -0.12 kcal/mol |
| ACTGTCACGTGCGTGT | -0.09 kcal/mol |
| GTGCCCACGTGGGTTG | -0.24 kcal/mol |
| GAGTACACGTGGGCAG | 0 kcal/mol |
| AAAGGCACGTGTCAGT | -0.03 kcal/mol |
| GGGATCACGTGTATAG | 0.24 kcal/mol |
| TAATTCACGTGTGGGC | 0.31 kcal/mol |
| GAGAGCACGTGAGTGA | 0.36 kcal/mol |
| AGGTGCACGTGGTGTG | -0.11 kcal/mol |
| TTGCTCACGTGAGGAT | 0.19 kcal/mol |
| TGGTTCACGTGCGGAC | 0.25 kcal/mol |
| TGGGCCACGTGGTGTG | -0.12 kcal/mol |
| TATATCACGTGCGATG | 0.17 kcal/mol |
| AGGGGCACGTGTCATG | -0.13 kcal/mol |
| CTATACACGTGTAGTG | -0.01 kcal/mol |
| GTGTCCACGTGAGTGA | 0.15 kcal/mol |
| GTTGTCACGTGAGGAT | 0.36 kcal/mol |
| TGAGTCACGTGGGTGT | -0.01 kcal/mol |
| GGGGGCACGTGTTAGA | -0.13 kcal/mol |

| Sequence | relative binding free energy |
| --- | --- |
| AGTGGCACGTGGAGCA | -0.09 kcal/mol |
| GATCGCACGTGTGGGT | -0.04 kcal/mol |
| CAGGACACGTGTGTTG | 0.15 kcal/mol |
| CTGGTCACGTGCGTAG | 0 kcal/mol |
| TTTGACACGTGGCGTG | 0.02 kcal/mol |
| GTTGACACGTGGTTGT | -0.02 kcal/mol |
| CAGGGCACGTGGATGG | -0.09 kcal/mol |
| CGTGTCACGTGTGAAG | 0.17 kcal/mol |
| GGAGGCACGTGTTTAA | 0.02 kcal/mol |
| TTTTGCACGTGTATTA | 0.1 kcal/mol |
| AGGGCCACGTGGCTGG | -0.12 kcal/mol |
| ATTGTCACGTGAGAAA | 0.24 kcal/mol |
| AGAGTCACGTGTTGTC | 0.19 kcal/mol |
| TTCGTCACGTGCTTAG | 0.14 kcal/mol |
| GCTATCACGTGCGTTG | 0.21 kcal/mol |
| AGTTACACGTGAAGGG | 0.34 kcal/mol |
| TAGATCACGTGTACGT | 0.16 kcal/mol |
| TAGGTCACGTGAGTGC | 0.27 kcal/mol |
| AGTAGCACGTGTAGTT | -0.1 kcal/mol |
| TTGGCCACGTGGGTTA | -0.14 kcal/mol |
| CCGGTCACGTGGTGCG | 0.03 kcal/mol |
| TGACTCACGTGAGAGT | 0.34 kcal/mol |
| CTGGGCACGTGAGGGG | 0.11 kcal/mol |
| TGGTGCACGTGGCTAT | -0.12 kcal/mol |
| GTATTCACGTGTTGCA | 0.34 kcal/mol |

| Sequence | relative binding free energy |
| --- | --- |
| GGGGACACGTGGATGC | 0.03 kcal/mol |
| TTGCGCACGTGTTTAT | -0.1 kcal/mol |
| AGGATCACGTGGTTGC | 0.1 kcal/mol |
| TTTTTCACGTGTACGG | 0.41 kcal/mol |
| GGGTGCACGTGCGATA | 0.13 kcal/mol |
| GATGTCACGTGAAGGC | 0.36 kcal/mol |
| TTGTGCACGTGCCTGT | -0.02 kcal/mol |
| GTGATCACGTGTCGTA | 0.16 kcal/mol |
| CGTGCCACGTGTTTAG | -0.07 kcal/mol |
| TATAGCACGTGGGTTC | -0.16 kcal/mol |
| CTCGTCACGTGGGGGC | -0.09 kcal/mol |
| GTGTTCACGTGGTCGA | 0.11 kcal/mol |
| CCGGTCACGTGATGGT | 0.22 kcal/mol |
| AGCGGCACGTGCGGTG | -0.14 kcal/mol |
| TTGACCACGTGTGTTC | 0.1 kcal/mol |
| AAACGCACGTGTTGGT | -0.17 kcal/mol |
| ACATGCACGTGAGTGG | 0 kcal/mol |
| TTGGTCACGTGGCTGC | 0.02 kcal/mol |
| GGTTACACGTGTATAT | 0.06 kcal/mol |
| ACGTGCACGTGGATGT | -0.11 kcal/mol |
| TGTTGCACGTGGCATG | -0.04 kcal/mol |
| GGAAGCACGTGAGGAA | 0.16 kcal/mol |
| CTTCGCACGTGTGGGC | 0 kcal/mol |
| TGGATCACGTGGGCTA | -0.08 kcal/mol |
| TCGAGCACGTGTTAGT | -0.08 kcal/mol |

| Sequence | relative binding free energy |
| --- | --- |
| TAATTCACGTGAGGAA | 0.32 kcal/mol |
| GTATTCACGTGAAATG | 0.53 kcal/mol |
| TAAGACACGTGGCTTT | -0.03 kcal/mol |
| TATTGCACGTGTGTGG | 0.09 kcal/mol |
| TGGAACACGTGGTGCA | -0.04 kcal/mol |
| GGTGGCACGTGTGATC | 0.16 kcal/mol |
| CCGGTCACGTGGGTAG | -0.2 kcal/mol |
| ATAAGCACGTGTTGGA | -0.25 kcal/mol |
| TGTATCACGTGAGCTA | 0.27 kcal/mol |
| GTATACACGTGGATGT | 0.11 kcal/mol |
| CATGGCACGTGTTAAT | 0.11 kcal/mol |
| AATTACACGTGTTATG | 0.19 kcal/mol |
| GATAGCACGTGTTTAG | -0.04 kcal/mol |
| GGTTGCACGTGTGCTA | 0.04 kcal/mol |
| ATTTGCACGTGTTATT | 0.05 kcal/mol |
| GGGTGCACGTGGGGGG | -0.11 kcal/mol |
| AGGTGCACGTGGGGGG | -0.12 kcal/mol |
| ATGTGCACGTGCTTAG | -0.15 kcal/mol |
| CGGGGCACGTGTCTGG | -0.08 kcal/mol |
| ATGTGCACGTGTGCGC | -0.04 kcal/mol |
| AATTGCACGTGGTGGC | 0.01 kcal/mol |
| TAAATCACGTGGGTGG | 0.06 kcal/mol |
| AATCGCACGTGTTTTA | 0 kcal/mol |
| TGAGACACGTGTGCGG | -0.06 kcal/mol |
| GGGAGCACGTGAGCTG | 0.2 kcal/mol |

| Sequence | relative binding free energy |
| --- | --- |
| GCAGTCACGTGGTGCG | 0.09 kcal/mol |
| GGAGCCACGTGGTGGT | -0.11 kcal/mol |
| TGGACCACGTGTGGGG | 0 kcal/mol |
| CAGATCACGTGTGGGA | 0.31 kcal/mol |
| AAGGTCACGTGTGTAT | 0.18 kcal/mol |
| TCAGGCACGTGGATGG | 0.02 kcal/mol |
| TTTAACACGTGGGGAG | -0.08 kcal/mol |
| TTGACCACGTGTGTAG | 0.02 kcal/mol |
| GGTAGCACGTGTTTTA | -0.03 kcal/mol |
| ATGAGCACGTGATGTG | 0.06 kcal/mol |
| TATTGCACGTGTTACA | -0.07 kcal/mol |
| TCGTGCACGTGTGGAT | 0.08 kcal/mol |
| GGAGCCACGTGAGGGC | 0.13 kcal/mol |
| TGTGGCACGTGAAAGA | 0.09 kcal/mol |
| GAGTTCACGTGTGGCT | 0.39 kcal/mol |
| AGTTTCACGTGATTAA | 0.28 kcal/mol |
| ATGTGCACGTGAGGAA | -0.04 kcal/mol |
| CTTGACACGTGTTGGA | -0.02 kcal/mol |
| TATTTCACGTGGAACG | 0.33 kcal/mol |
| CAAGGCACGTGTATGT | -0.15 kcal/mol |
| GAAGTCACGTGGATGC | 0.37 kcal/mol |
| TGTGGCACGTGGGGCC | -0.18 kcal/mol |
| TTGGGCACGTGATCAG | -0.05 kcal/mol |
| TGATGCACGTGGCTTA | -0.16 kcal/mol |
| CAGTACACGTGGTTGT | -0.12 kcal/mol |

| Sequence | relative binding free energy |
| --- | --- |
| GAAGGCACGTGTGCGT | -0.08 kcal/mol |
| TTAGCCACGTGTAGGG | -0.02 kcal/mol |
| TGCGACACGTGGGGGC | 0.04 kcal/mol |
| GTTAGCACGTGAAGGA | 0.23 kcal/mol |
| TGGATCACGTGAATGT | 0.28 kcal/mol |
| TGAGGCACGTGGACGG | -0.13 kcal/mol |
| GTGACCACGTGGGAGT | -0.1 kcal/mol |
| GGGAGCACGTGGTGGC | -0.05 kcal/mol |
| AATTGCACGTGAGAGG | 0.31 kcal/mol |
| CGCGTCACGTGAAGGT | 0.27 kcal/mol |
| ATGCACACGTGGATTG | 0.09 kcal/mol |
| GATGCCACGTGGGGAG | 0.02 kcal/mol |
| TACTTCACGTGGCGTG | 0.19 kcal/mol |
| ATATTCACGTGGGTTA | 0.06 kcal/mol |
| AGTTGCACGTGGTGAG | -0.1 kcal/mol |
| GAATGCACGTGAGGGA | 0.18 kcal/mol |
| GGTAACACGTGTATTT | 0 kcal/mol |
| AAGAGCACGTGTTTAT | -0.08 kcal/mol |
| TGAAACACGTGTGGTT | -0.05 kcal/mol |
| ATTGGCACGTGTCAGT | -0.12 kcal/mol |
| TCTTTCACGTGAGGGA | 0.22 kcal/mol |
